Measured values reported in the supplement of paper PMC3334620.
The full ranking holds about 33,000 sequences; the median of “E-score (-0.5 to 0.5)” is about -0.011, and the highest 2% start at about 0.28. This is one part of the list.

biological target: T1, Gcr1 (UniProt P07261); experiment: PBM E-score (8-mer binding enrichment) (E-score (-0.5 to 0.5)); higher = stronger / more preferred TF binding; most listed sequences are background and not binding sites; details: protein concentration: 100 nM; construct: GST-full length
T1 sequence: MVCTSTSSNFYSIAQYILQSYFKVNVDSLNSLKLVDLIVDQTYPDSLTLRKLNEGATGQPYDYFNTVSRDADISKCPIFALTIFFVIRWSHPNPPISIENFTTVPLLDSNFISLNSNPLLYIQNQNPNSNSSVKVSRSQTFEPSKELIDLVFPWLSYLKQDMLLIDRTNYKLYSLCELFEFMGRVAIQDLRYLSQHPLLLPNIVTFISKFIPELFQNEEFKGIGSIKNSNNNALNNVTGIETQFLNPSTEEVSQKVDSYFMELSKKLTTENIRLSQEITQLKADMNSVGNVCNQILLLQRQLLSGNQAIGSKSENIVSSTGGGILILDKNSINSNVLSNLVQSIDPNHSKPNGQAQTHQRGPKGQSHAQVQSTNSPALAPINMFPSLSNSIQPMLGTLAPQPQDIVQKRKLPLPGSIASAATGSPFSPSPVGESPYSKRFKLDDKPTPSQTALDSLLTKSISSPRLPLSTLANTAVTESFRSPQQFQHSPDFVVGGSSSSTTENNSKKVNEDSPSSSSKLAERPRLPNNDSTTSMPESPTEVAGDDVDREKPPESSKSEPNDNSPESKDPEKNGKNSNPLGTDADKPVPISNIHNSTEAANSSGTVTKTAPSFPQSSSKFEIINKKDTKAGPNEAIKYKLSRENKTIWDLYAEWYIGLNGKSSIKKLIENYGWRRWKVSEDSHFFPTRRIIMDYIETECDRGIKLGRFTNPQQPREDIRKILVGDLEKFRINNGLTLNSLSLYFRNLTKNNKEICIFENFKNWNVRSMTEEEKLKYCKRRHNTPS
Description: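 Universal 'all 10-mer' protein binding microarrays (Agilent AMADID 015681) probed with GST-tagged S. cerevisiae TFs (full-length or DBD) made by in vitro transcription/translation (PURExpress), about 100-200 nM. Bound TF was detected with fluorescent anti-GST. Each ungapped 8-mer (which stands for itself and its reverse complement) is scored by the PBM enrichment score (E-score), a modified Wilcoxon-Mann-Whitney statistic from -0.5 to +0.5, computed with the Universal PBM Analysis Suite. Scale: above 0.35 generally sequence-specific binding.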

Sequence | PBM E-score
CTCGATCA | -0.0217
ACGCGAAA | -0.0332
GACTCACA | -0.206
CTGAACAG | 0.049
AGTCACTC | -0.0527
AGTTGATA | -0.0564
GACGCTAA | -0.0744
GCACTGCA | -0.362
ATGGGATC | 0.19
CCCCACCA | 0.254
AGAGTCGA | -0.21
CTGACGAA | -0.103
CGTCCTCC | -0.035
AGCTAAAC | -0.126
CGTTATGA | -0.0359
AAAACTGT | -0.134
AAACTTAC | 0.0163
ATCTAGTC | 0.0902
GCCGGCTA | -0.145
CGGTCACG | -0.114
ACGGTCCC | -0.0433
AGCAAACC | -0.216
AGCAGCTC | 0.16
ATGGGTCC | 0.155
AGGGCTAC | -0.0252

Sequence | PBM E-score
ATATCCCC | -0.108
GGGTCACC | 0.145
AGCGGGAG | -0.0166
CAGATCGC | -0.199
GCGGAAGA | -0.195
CGCTCATC | 0.111
GCACGCTA | -0.0819
CTTGGTCA | -0.0414
ACCTGGTA | 0.0521
ATCATTAG | 0.154
GAACAAGC | -0.127
GAAAAGCC | -0.326
ATCATACA | 0.162
ACAGCTAA | -0.226
ATTAGGTG | 0.154
ATTTTAGC | 0.0912
GGATTTCA | 0.0442
AGGTCAGG | -0.0515
ATCTGGAC | 0.133
GCGGCCCC | 0.19
TGTTTAAA | 0.198
CGCGTGTC | -0.133
TATGGGCA | 0.0968
GCAGAACA | -0.0469
GTACGAAC | -0.109

Sequence | PBM E-score
TCCTTGCA | -0.117
AGCCCCCA | 0.0591
GTTTCGAA | 0.0056
AGGTCTCG | 0.0158
GGGCCTTA | -0.112
GCCGGGCC | 0.00663
ACGAATAA | -0.0743
ACCAACCG | -0.134
GCGAGGCC | -0.114
GACCAGAA | 0.131
CACTTGAG | 0.00447
GTAAAGGA | 0.149
ACCCCCTA | -0.249
AGGGACAA | -0.168
ACGATCGC | 0.0424
AGCGAACA | -0.217
CTACTGGA | 0.255
TCCGTGAA | -0.0227
ATGTCAGA | -0.116
AGATATCC | -0.0693
AAATGATT | 0.124
CCCCTGGA | -0.0352
ACGCGCAT | -0.0657
CAATAAAG | 0.164
GCTTAGAC | -0.144

Sequence | PBM E-score
ATGAGTGG | 0.0935
CCAAGGCC | -0.205
GCGAATCA | -0.0143
TAAGAGCA | 0.0308
ATAACGTA | -0.08
ATGCTGTG | -0.0455
CGCCGGGA | -0.0536
GCGCTCCC | 0.078
CATGTATA | -0.0312
ATGTTTGA | 0.00526
TCCTGGCA | 0.0466
CACGAACA | 0.119
AAGAATAC | 0.186
ATACTCGG | -0.114
AGTTGAAC | -0.00272
TGCTCACA | -0.0462
AGTGTTTC | 0.0569
AGATAGCT | -0.131
CCGAGGAG | 0.00319
CGGAGTAG | 0.0642
GACAATTA | 0.069
ACGAGGCG | -0.0531
CAATGGTA | 0.0267
CTGGCTAA | 0.0499
AGGGAGCC | 0.296

Sequence | PBM E-score
ACAATCAC | -0.201
CGGGGACG | -0.0108
AGTGTAAC | -0.186
GAAGAATA | 0.0261
CACGCACA | -0.151
GCCACACA | 0.123
ACTGTGTC | -0.117
ACGAACAA | -0.00539
AATTAGGG | -0.012
AAGGCCCC | 0.0928
GTCGGGGA | 0.102
GACTCTGA | -0.0504
TGGATGAA | -0.0905
CGCCCCCG | -0.00755
ACTTACGC | -0.118
GCGCACGC | -0.062
ATTCGAAC | 0.0584
GCAGGCGC | -0.0504
ACCAATTA | 0.168
GACAACAC | -0.0973
AAGCGCAT | 0.141
CGAGTCGC | -0.257
CCCCCCTC | -0.328
TATAGTAA | 0.0601
TAGTACGA | 0.00193

Sequence | PBM E-score
ACTCTCCG | -0.0847
ACGAATAG | -0.0975
CTCCTAGC | -0.149
CCAGTAGG | 0.198
TATTACCA | 0.122
GGAGTTGA | 0.0702
ACGGAGGC | -0.00955
GATCACGC | -0.0396
CGTGACGA | -0.0286
TCCCGCAA | 0.0539
ACACTACA | 0.125
GGCGTTCA | 0.0407
ACCTAAAA | 0.207
CAGTACCC | 0.0548
ACCCACTG | 0.147
GACCGTTA | -0.116
CATCGCAC | -0.162
TCAGGACA | 0.141
CGCGTCTC | 0.301
ACTCTTAT | -0.0208
TATACAGA | 0.145
CGCATACA | 0.189
GCGGTAGA | -0.304
CGGCGTTC | 0.0712
GCATGAAC | -0.0386

Sequence | PBM E-score
GCGGAATA | -0.0316
CACCATGC | 0.0319
GAGTTTTA | -0.0333
AGCACAAA | 0.00523
CAGATGGG | 0.044
ACCATCGT | -0.305
ACCGAATA | -0.0481
CAAGACGG | -0.218
GTCCCGGA | 0.158
CCTGGTAA | 0.0703
CCCGACGA | 0.0476
CCTAGTAG | 0.202
ATTGATAA | 0.143
CCTCGAGA | -0.0892
ACCTCACT | -0.16
ACACGTAG | 0.123
AAGCTGCT | 0.185
TAGACGGA | -0.0232
GAGCTTTA | -0.131
GCGGGACC | 0.0998
GCACGCAC | -0.0614
AACGGGAG | 0.056
